From the supplement of paper PMC12067230 come the findings set out here.

Single values of this set are uncertain.
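Also: [psi-pin-] Saccharomyces cerevisiae expressing SupN fusions, induced by 100 µM Cu2SO4, selected 7 d at 30 °C without adenine and uracil, scored by deep sequencing of output versus input.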

One data set is described as follows: amyloid nucleation score relative to library mode (yeast Sup35 reporter selection) (log enrichment difference); higher = more amyloid nucleation; sequences are the first 22 residues of the Bri2 peptide extended by up to 12 random residues. Particulars: random library (experiment): 1;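 active = nucleation score significantly above 0 at FDR 0.05; inactive = not significantly above 0 or absent from output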.
As for EASNCFAIRHFENKFAVETLICEWLCLSMVYRRM, the amyloid nucleation score result is “inactive”.

As to EASNCFAIRHFENKFAVETLICEWLRFRLRTWTR, the amyloid nucleation score result was “inactive”.

EASNCFAIRHFENKFAVETLICEWLRNCTARMAT: the amyloid nucleation score result is “inactive”.

In turn, EASNCFAIRHFENKFAVETLICEWRVSLRVSDWG showed an amyloid nucleation score of 0.00985.

In the case of EASNCFAIRHFENKFAVETLICEWSYMSM, the amyloid nucleation score result was “inactive”.

Sequence EASNCFAIRHFENKFAVETLICEWTEDYCRWVE came in with an amyloid nucleation score of -0.0385.

With EASNCFAIRHFENKFAVETLICEWTWQFDMNVVV, the amyloid nucleation score entry is “inactive”.

In the case of EASNCFAIRHFENKFAVETLICEWWNEVQRERRC, the amyloid nucleation score result is “inactive”.

In the case of EASNCFAIRHFENKFAVETLICEWWQVDEEVQRE, the amyloid nucleation score entry was “inactive”.

EASNCFAIRHFENKFAVETLICEY: the amyloid nucleation score result was “inactive”.

For the sequence EASNCFAIRHFENKFAVETLICEYAQNFMPWSRV, the amyloid nucleation score entry was “inactive”.

Regarding EASNCFAIRHFENKFAVETLICEYMGAECEFTLP, the amyloid nucleation score is -0.309.

Consider EASNCFAIRHFENKFAVETLICEYVVNGKVRAAR, for which the amyloid nucleation score is 3.06.

The sequence EASNCFAIRHFENKFAVETLICFACNPFVGNQWR returned an amyloid nucleation score of 9.3.

Consider EASNCFAIRHFENKFAVETLICFACVTLSSAWLL, for which the amyloid nucleation score entry is “inactive”.

Regarding EASNCFAIRHFENKFAVETLICFADALL, the amyloid nucleation score entry is “inactive”.

For the sequence EASNCFAIRHFENKFAVETLICFAFSRRQWMGWA, the amyloid nucleation score result is “inactive”.

EASNCFAIRHFENKFAVETLICFAGA: the amyloid nucleation score entry was “inactive”.

For the sequence EASNCFAIRHFENKFAVETLICFAHRYFLHSFVR, the amyloid nucleation score result is “inactive”.

For the sequence EASNCFAIRHFENKFAVETLICFALSVRGCLRQL, the amyloid nucleation score result is “inactive”.

The sequence EASNCFAIRHFENKFAVETLICFAM showed an amyloid nucleation score of 5.85.

For the sequence EASNCFAIRHFENKFAVETLICFAMLCWYWPSPS, the amyloid nucleation score was -0.392.

Regarding EASNCFAIRHFENKFAVETLICFAMLMVKETAWV, the amyloid nucleation score result was “inactive”.

EASNCFAIRHFENKFAVETLICFARASGEVSGGV registered an amyloid nucleation score of 3.76.

For the sequence EASNCFAIRHFENKFAVETLICFARIGMSIVTKH, the amyloid nucleation score result is “inactive”.

EASNCFAIRHFENKFAVETLICFASR: the amyloid nucleation score was 6.84.

In turn, EASNCFAIRHFENKFAVETLICFATHSQ returned an amyloid nucleation score of 5.71.

As for EASNCFAIRHFENKFAVETLICFAVFLLTFVPIR, the amyloid nucleation score was 4.76.

Regarding EASNCFAIRHFENKFAVETLICFAWCQRRVQPMG, the amyloid nucleation score entry is “inactive”.

Regarding EASNCFAIRHFENKFAVETLICFAYSNKSDVEGN, the amyloid nucleation score is 5.48.

For the sequence EASNCFAIRHFENKFAVETLICFCCNGSVSSATH, the amyloid nucleation score turned out to be 9.35.

EASNCFAIRHFENKFAVETLICFCCQSNFRYPSF registered an amyloid nucleation score of 6.38.

Take EASNCFAIRHFENKFAVETLICFCCVRGDRVFTW: the amyloid nucleation score amounted to 8.33.

As for EASNCFAIRHFENKFAVETLICFCDEGRMKPHAG, the amyloid nucleation score amounted to 6.95.

EASNCFAIRHFENKFAVETLICFCH registered an amyloid nucleation score of 2.19.

Regarding EASNCFAIRHFENKFAVETLICFCLHVSGCRSMA, the amyloid nucleation score entry was “inactive”.

Turning to EASNCFAIRHFENKFAVETLICFCLIMLVSRCDG, the amyloid nucleation score result is “inactive”.

In the case of EASNCFAIRHFENKFAVETLICFCLQSV, the amyloid nucleation score amounted to 6.72.

EASNCFAIRHFENKFAVETLICFCLRTG registered an amyloid nucleation score of 6.73.

As for EASNCFAIRHFENKFAVETLICFCLSKFSSGDTC, the amyloid nucleation score was 5.45.

Consider EASNCFAIRHFENKFAVETLICFCLVTLLLDVVQ, for which the amyloid nucleation score result was “inactive”.

EASNCFAIRHFENKFAVETLICFCMCRIYNCTCA returned an amyloid nucleation score of 2.54.

As for EASNCFAIRHFENKFAVETLICFCMDRHERFMYG, the amyloid nucleation score was 3.21.

Still in this data set, the particulars now being: random library (experiment): 2.
EASNCFAIRHFENKFAVETLICEWSVL showed an amyloid nucleation score of 0.598.

Regarding EASNCFAIRHFENKFAVETLICEYCGGQRFCQVG, the amyloid nucleation score entry is “inactive”.

With EASNCFAIRHFENKFAVETLICEYERR, the amyloid nucleation score result was “inactive”.

In the case of EASNCFAIRHFENKFAVETLICEYIWRRHNCLVI, the amyloid nucleation score result was “inactive”.

As to EASNCFAIRHFENKFAVETLICEYNLY, the amyloid nucleation score result was “inactive”.

Take EASNCFAIRHFENKFAVETLICEYRIKFSVSWHF: the amyloid nucleation score result was “inactive”.

Turning to EASNCFAIRHFENKFAVETLICEYRIMSIWTSTW, the amyloid nucleation score entry is “inactive”.

Turning to EASNCFAIRHFENKFAVETLICEYRQNWLVQNTS, the amyloid nucleation score result is “inactive”.

With EASNCFAIRHFENKFAVETLICEYTNNSVNTVIP, the amyloid nucleation score result is “inactive”.

On to EASNCFAIRHFENKFAVETLICFA, for which the amyloid nucleation score entry is “inactive”.

Consider EASNCFAIRHFENKFAVETLICFAAKNRNYNTAC, for which the amyloid nucleation score worked out at 0.396.

With EASNCFAIRHFENKFAVETLICFADNLIA, the amyloid nucleation score stood at 4.09.

In turn, EASNCFAIRHFENKFAVETLICFADSGKMINEYT came in with an amyloid nucleation score of -0.239.

With EASNCFAIRHFENKFAVETLICFAFL, the amyloid nucleation score is 8.28.

EASNCFAIRHFENKFAVETLICFAFVYHFWGFYS came in with an amyloid nucleation score of -0.278.

Turning to EASNCFAIRHFENKFAVETLICFAGSFNTLVHGD, the amyloid nucleation score worked out at 6.94.

Regarding EASNCFAIRHFENKFAVETLICFAIPQVYYIGGA, the amyloid nucleation score entry was “inactive”.

Sequence EASNCFAIRHFENKFAVETLICFAIVICIHKMSA registered an amyloid nucleation score of 4.55.

Regarding EASNCFAIRHFENKFAVETLICFAN, the amyloid nucleation score entry was “inactive”.

In the case of EASNCFAIRHFENKFAVETLICFASGFMFRLTTD, the amyloid nucleation score result was “inactive”.

Take EASNCFAIRHFENKFAVETLICFASHFVE: the amyloid nucleation score came to 4.4.

Sequence EASNCFAIRHFENKFAVETLICFAVSAHMRDCAS showed an amyloid nucleation score of 0.505.

Regarding EASNCFAIRHFENKFAVETLICFAVWICYAHAYS, the amyloid nucleation score entry is “inactive”.

On to EASNCFAIRHFENKFAVETLICFAYPSVQ, for which the amyloid nucleation score is 5.72.

With EASNCFAIRHFENKFAVETLICFAYYLAMGVYKS, the amyloid nucleation score entry is “inactive”.

EASNCFAIRHFENKFAVETLICFC yielded an amyloid nucleation score of 6.71.

As to EASNCFAIRHFENKFAVETLICFCG, the amyloid nucleation score worked out at 7.5.

On to EASNCFAIRHFENKFAVETLICFCGDRHGFEQAG, for which the amyloid nucleation score turned out to be 7.89.

In turn, EASNCFAIRHFENKFAVETLICFCGRFSY yielded an amyloid nucleation score of 0.498.

Regarding EASNCFAIRHFENKFAVETLICFCHGWLDVVSYR, the amyloid nucleation score entry is “inactive”.

EASNCFAIRHFENKFAVETLICFCHTQFFSYGCC returned an amyloid nucleation score of 1.28.

EASNCFAIRHFENKFAVETLICFCISVR gave an amyloid nucleation score of 5.02.

With EASNCFAIRHFENKFAVETLICFCITLSLDLNYE, the amyloid nucleation score entry is “inactive”.

In the case of EASNCFAIRHFENKFAVETLICFCLGLMLDMCPL, the amyloid nucleation score result is “inactive”.

Still in this data set, the particulars now being: random library (experiment): 3.
For EASNCFAIRHFENKFAVETLICEWNFVYYCHF, the amyloid nucleation score entry is “inactive”.

Sequence EASNCFAIRHFENKFAVETLICEWQETASVRNGP yielded an amyloid nucleation score of 0.

As for EASNCFAIRHFENKFAVETLICEWVESGRLFREL, the amyloid nucleation score result was “inactive”.

For the sequence EASNCFAIRHFENKFAVETLICEWYRYHR, the amyloid nucleation score entry was “inactive”.

On to EASNCFAIRHFENKFAVETLICEYLVYSYMLCTK, for which the amyloid nucleation score result was “inactive”.

As for EASNCFAIRHFENKFAVETLICEYRVAIRVRANL, the amyloid nucleation score entry was “inactive”.

On to EASNCFAIRHFENKFAVETLICEYRWQWVENV, for which the amyloid nucleation score entry was “inactive”.

Regarding EASNCFAIRHFENKFAVETLICEYVQRVENQFSG, the amyloid nucleation score was 5.36.

Regarding EASNCFAIRHFENKFAVETLICFAALYKSSGC, the amyloid nucleation score entry was “inactive”.

Sequence EASNCFAIRHFENKFAVETLICFAAYEWGFGRSG had an amyloid nucleation score of 3.14.

In turn, EASNCFAIRHFENKFAVETLICFADVVISCFDTA yielded an amyloid nucleation score of 6.43.

In the case of EASNCFAIRHFENKFAVETLICFAHCFGLYVYSG, the amyloid nucleation score result is “inactive”.

On to EASNCFAIRHFENKFAVETLICFAISSLVTWMCG, for which the amyloid nucleation score entry is “inactive”.

Consider EASNCFAIRHFENKFAVETLICFALKHRMHLNTC, for which the amyloid nucleation score entry was “inactive”.

Take EASNCFAIRHFENKFAVETLICFAPRVSRGRRTP: the amyloid nucleation score result is “inactive”.

Consider EASNCFAIRHFENKFAVETLICFAPTVGARTERC, for which the amyloid nucleation score result was “inactive”.

For EASNCFAIRHFENKFAVETLICFARMIKS, the amyloid nucleation score entry was “inactive”.

Regarding EASNCFAIRHFENKFAVETLICFARNITKSRFAR, the amyloid nucleation score entry was “inactive”.

In turn, EASNCFAIRHFENKFAVETLICFATDGEFYKSSL came in with an amyloid nucleation score of 2.11.

On to EASNCFAIRHFENKFAVETLICFATRFGVGSI, for which the amyloid nucleation score was 3.86.

Regarding EASNCFAIRHFENKFAVETLICFCAIELMTPCGR, the amyloid nucleation score result was “inactive”.

EASNCFAIRHFENKFAVETLICFCAR gave an amyloid nucleation score of 4.72.

The sequence EASNCFAIRHFENKFAVETLICFCDLHELTKQNS had an amyloid nucleation score of 8.09.

EASNCFAIRHFENKFAVETLICFCENQLSDTVVL came in with an amyloid nucleation score of 4.19.

In turn, EASNCFAIRHFENKFAVETLICFCGGDGVELAWV registered an amyloid nucleation score of 3.9.

EASNCFAIRHFENKFAVETLICFCL: the amyloid nucleation score turned out to be 8.27.

EASNCFAIRHFENKFAVETLICFCLSRSGLWREG: the amyloid nucleation score worked out at 4.83.
